Measured values published in publication PMC4336329 (PLoS ONE, 2015).
Hit rate of the full screen: of about 310,000 compounds, about 14,000 (4.5%) showed an effect of 50% or more. The effect is printed as a negative number. This is one part of the list.

Target: human ether-à-go-go-related gene (hERG) potassium channel (human, UniProt Q12809)
Test: primary screen, population patch clamp on CHO cells stably expressing hERG
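Further: peak tail current of the secondary pulse compared with the same well before compound.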

Sequence of human ether-à-go-go-related gene (hERG) potassium channel (Q12809 whole entry, looked up): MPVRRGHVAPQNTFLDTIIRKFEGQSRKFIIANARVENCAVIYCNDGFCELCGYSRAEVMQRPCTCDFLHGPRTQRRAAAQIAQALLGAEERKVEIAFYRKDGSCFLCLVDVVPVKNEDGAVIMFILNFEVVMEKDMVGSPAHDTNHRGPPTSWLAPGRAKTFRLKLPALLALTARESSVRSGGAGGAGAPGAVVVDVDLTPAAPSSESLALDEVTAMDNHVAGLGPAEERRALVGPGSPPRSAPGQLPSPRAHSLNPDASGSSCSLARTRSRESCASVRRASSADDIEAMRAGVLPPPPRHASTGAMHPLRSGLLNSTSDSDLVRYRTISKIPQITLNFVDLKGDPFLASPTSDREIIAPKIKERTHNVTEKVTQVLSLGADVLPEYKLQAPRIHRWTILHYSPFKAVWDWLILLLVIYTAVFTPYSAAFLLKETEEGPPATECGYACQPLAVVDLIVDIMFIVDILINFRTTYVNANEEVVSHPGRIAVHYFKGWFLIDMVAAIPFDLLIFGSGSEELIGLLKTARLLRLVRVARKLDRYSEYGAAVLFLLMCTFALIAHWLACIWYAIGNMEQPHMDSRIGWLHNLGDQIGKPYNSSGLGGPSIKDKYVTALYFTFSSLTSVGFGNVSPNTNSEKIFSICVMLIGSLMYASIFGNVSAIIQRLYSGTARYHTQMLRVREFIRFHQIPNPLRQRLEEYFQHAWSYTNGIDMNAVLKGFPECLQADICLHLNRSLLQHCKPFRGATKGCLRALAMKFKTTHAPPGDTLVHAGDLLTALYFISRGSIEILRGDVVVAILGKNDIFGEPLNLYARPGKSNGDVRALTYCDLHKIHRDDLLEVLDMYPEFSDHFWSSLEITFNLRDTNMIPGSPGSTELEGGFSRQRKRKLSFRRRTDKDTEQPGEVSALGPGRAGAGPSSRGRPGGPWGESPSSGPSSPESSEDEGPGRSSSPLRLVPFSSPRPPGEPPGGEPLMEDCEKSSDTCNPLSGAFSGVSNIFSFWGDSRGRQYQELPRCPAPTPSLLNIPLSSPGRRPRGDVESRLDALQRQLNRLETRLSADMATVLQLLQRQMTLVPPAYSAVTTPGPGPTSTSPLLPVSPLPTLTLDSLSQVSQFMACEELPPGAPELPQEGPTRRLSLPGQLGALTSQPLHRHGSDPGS

| SMILES | hERG current change (%, negative = inhibition) at 10uM [%] |
| --- | --- |
| Cc1ccc(-n2nc3c(=O)n(CC(=O)NC4CCCCC4)nc(C)c3c2C)cc1 | 3.61 |
| CCc1ccccc1NC(=O)Cn1nnc(-c2cccnc2)n1 | 5.3 |
| CCS(=O)(=O)N1CCC(C(=O)Nc2cccc(F)c2)CC1 | -6.51 |
| CN(CC(=O)Nc1ccc(N2CCOCC2)cc1)CC(=O)Nc1ccc(Cl)cc1[N+](=O)[O-] | -40.9 |
| CC(C)N(CCNC(=O)C1CCN(S(=O)(=O)N2CCOCC2)CC1)Cc1ccccc1 | 1.64 |
| COc1ccc(CNC(=O)Nc2cccc(Cl)c2)cc1 | 8.75 |
| CN(C)Cc1c(O)ccc2c(-c3ccccc3)cc(=O)oc12 | -13.8 |
| CN(Cc1cnccn1)C(=O)CC1C(=O)NCCN1Cc1cccc(Oc2ccccc2)c1 (stereo not drawn) | -42.6 |
| O=C(Nc1cccnc1)c1cc(-c2ccc(Cl)cc2Cl)on1 | -8.64 |
| CCc1nnc(NC(=O)CSc2nnc(-c3ccccc3O)n2-c2ccc(C)cc2)s1 | 16.6 |
| O=C(CNS(=O)(=O)c1ccc(Br)cc1)N1CCN(Cc2ccccc2)CC1 | -17.2 |
| CN(C(=O)c1ccc(N2CCCCC2)c([N+](=O)[O-])c1)C1(C)CCS(=O)(=O)C1 (stereo not drawn) | -17.4 |
| CN(CC(=O)Nc1ncn[nH]1)S(=O)(=O)c1ccc(Br)cc1 | 8.78 |
| Cc1onc(-c2c(Cl)cccc2Cl)c1C(=O)ONC(=O)c1cc(C(F)(F)F)cc(C(F)(F)F)c1 | -13.7 |
| O=C(NN1C(=O)C2C3CCC(O3)C2C1=O)c1ccco1 (stereo not drawn) | 6.59 |
| Cc1ccc(CN2CCN(C(=O)CCC(=O)Nc3nnc(C(C)C)s3)CC2)c(C)c1 | -19.5 |
| O=C(NNC(=O)C12CC3CC(CC(C3)C1)C2)c1ccccc1[N+](=O)[O-] | 4.75 |
| Cn1c(=O)cc(OCC(=O)NCCCN2CCN(c3cccc(Cl)c3)CC2)c2ccccc21 | -50.8 |
| COc1ccc(-c2n[nH]c(C)c2-c2cscn2)c(O)c1 | 10.5 |
| CC(C)C(=O)NNC(=O)CSc1nnc(-c2ccccc2)c(-c2ccccc2)n1 | 6.28 |
| Cc1cc(C)nc(NC(=O)c2c(C(=O)O)noc2C)n1 | 9.98 |

| SMILES | hERG current change (%, negative = inhibition) at 10uM [%] |
| --- | --- |
| COc1ccc(NC(=O)CN(C)C(=O)CCc2ccccc2)cc1 | 4.65 |
| O=c1c2cc(NC(=S)NCCCN3CCC(Cc4ccccc4)CC3)ccc2nc2n1CCCCC2 | -82.1 |
| COc1ccc(Cl)cc1Nc1nc(-c2sc(NC(=O)C(C)(C)C)nc2C)cs1 | -5.68 |
| COc1ccc(NC(=O)CN(C)C(=O)c2ccc3c(c2)S(=O)(=O)N=C2CCCCCN23)cc1 | 21.1 |
| CCc1nc(N2CCOCC2)c(C#N)c2c1COC(C)(C)C2 | 7.87 |
| CCC1Nc2ncnc(N3CCN(c4ccccc4)CC3)c2N(Cc2ccc(Br)cc2)C1=O.O=C(O)C(F)(F)F (stereo not drawn) | -8.47 |
| COc1ccc(CN(C(=O)COc2ccc(C)c(C)c2)C2CCS(=O)(=O)C2)cc1OC (stereo not drawn) | -25.6 |
| CCOC(=O)c1nnn(-c2nc(N3CCCC3)nc(N3CCCC3)n2)c1-c1ccccc1 | 1.72 |
| CSCCC(NS(=O)(=O)c1ccc2c(c1)oc(=O)n2C)C(=O)NCc1ccc(C)cc1 (stereo not drawn) | -3.41 |
| Cc1cccn2c(=O)c(/C=N/O)c(Nc3ccccc3F)nc12 | 1.48 |
| C/C(CC(=O)Nc1cccc2c1CCCC2)=N\NC(=O)c1cccc2ccccc12 | -7.31 |
| COC(=O)c1ccc(NC(=O)C(=O)N2CCN(C(=S)NCCc3ccccc3)CC2)cc1 | -24.9 |
| O=C(N/N=C/c1c[nH]c2ccccc12)c1cc(-c2cccc3ccccc23)n[nH]1 | -2.98 |
| CN(C)CCC#CC1(O)c2ccccc2-c2ccccc21 | 14 |
| CCN(CC)C(=O)c1[nH]cnc1C(=O)Nc1cccc(Cl)c1 | 5.51 |
| COc1ccccc1C1(O)C(=O)Nc2ccc(C)cc21 (stereo not drawn) | 0.933 |
| COC(=O)C/C=C/[C@@H](C)[C@@H](/C=N/O[C@@H](C)c1cn([C@H](CO)Cc2ccccc2)nn1)NS(=O)(=O)c1ccc(C)cc1 | -20.5 |
| COc1ccc(CCNC(=O)c2c(-c3ccccc3Cl)noc2C)cc1 | 1.88 |
| COc1ccc(N2CCN(C(c3cc4ccc(C)cc4[nH]c3=O)c3nnnn3C3CCCC3)CC2)cc1 (stereo not drawn) | -28.6 |
| COc1ccc(NC(=O)N2C[C@@H]3C[C@@H](C2)c2cccc(=O)n2C3)c(OC)c1 | -11.5 |
| COc1ccc(CC(=O)Nc2ccc(N3CCN(c4ccc(OC)cc4)CC3)c(C#N)c2)cc1 | 13.1 |

| SMILES | hERG current change (%, negative = inhibition) at 10uM [%] |
| --- | --- |
| COCOc1cc(O)c(C(=O)/C=C/c2ccccc2)c(OCOC)c1 | 4.67 |
| O=C1C(Nc2ccccc2)=C/C(=N/S(=O)(=O)c2cccs2)c2ccccc21 | -1.31 |
| C=CCOc1ccccc1CN1CCC(Oc2ccc(C(=O)N3CCCCC3)cc2)CC1 | -57.6 |
| CCOCCCNC(=O)c1c(C)c(C(=O)OCC)n(C)c1C | 15.3 |
| O=C(CSc1nc2scc(-c3ccccc3)c2c(=O)[nH]1)N1CCOCC1 | -0.626 |
| CC(Oc1ccc(Cl)cc1Cl)C(=O)Nc1ccc(N2CCN(C)CC2)cc1 (stereo not drawn) | -38.3 |
| CC(=O)NNc1nc(-c2ccc(NC(C)=O)cc2)cs1 | 16.2 |
| CC(Oc1ccccc1)c1nnc(SCC(=O)NC2CC2)n1C (stereo not drawn) | 10.5 |
| CC1=C(C(=O)Nc2cc(C(=O)NCCC(C)C)ccc2C)SCCO1 | -52.4 |
| CCOP(=O)(c1ccccc1)C1(C#N)CCCC1 (stereo not drawn) | 15.2 |
| CCn1cc(CNC(=O)C2CCC(=O)N(Cc3ccccc3F)C2)cn1 (stereo not drawn) | 8.25 |
| COc1ccc(OCCCCN(C)Cc2ccccc2)cc1.O=C(O)C(=O)O | -45.7 |
| S=c1[nH]nc(-c2cc(-c3ccccc3)n[nH]2)n1/N=C/C=C/c1ccco1 | 18.6 |
| O=C(NCc1ccccc1)N1CCN(c2ccc(F)cc2)CC1 | -1.73 |
| Cc1cccc(NC(=O)COC(=O)c2ccccc2-c2nc3ccccc3s2)c1C | -11 |
| CCc1ccc(NC(=O)c2sc3nc4n(c(=O)c3c2C)CCC4)cc1 | -18.7 |
| c1cncc(C(c2nnnn2C2CCCCC2)N2CCN3CCCC3C2)c1 (stereo not drawn) | -12 |
| CCc1ccc(/C=C2/SC(=S)N(CCCC(=O)Nc3ccccc3C(=O)O)C2=O)cc1 | 2.43 |
| COc1ccc(-c2oc3ccccc3c2C(=O)OCc2ccc(O)cc2)cc1 | -1.19 |
| C=CCOc1c(Cl)cc(C2NC(=O)NC(C)=C2C(=O)OC)cc1Cl (stereo not drawn) | 2.26 |
| CC(=O)N1CC(=O)N(Cc2ccccc2)/C(=C/c2ccccc2)C1=O | 1.8 |

| SMILES | hERG current change (%, negative = inhibition) at 10uM [%] |
| --- | --- |
| O=c1cc(N2CCN(Cc3ccccc3)CC2)[nH]c(=O)n1-c1cccc(C(F)(F)F)c1 | -3.51 |
| Cc1nn(C(C)C(=O)NCc2ccco2)c(=O)c2nn(-c3ccccc3)c(C)c12 (stereo not drawn) | -16.5 |
| CCOC(=O)C1CCCN(C(=O)C2CC(=O)N(c3ccc(C)cc3)C2)C1 (stereo not drawn) | -10.2 |
| Cc1nc2ccc(NC(=O)C3CCN(S(=O)(=O)c4cccs4)CC3)cc2s1 | -20.6 |
| CCCCNC(=O)N(O)C1N(CCCC)C(=O)N(CC(=O)OC)C1(C)C (stereo not drawn) | 20 |
| COc1ccc(S(=O)(=O)N2CCN(C(=O)c3ccco3)CC2)c(C)c1C | -8.5 |
| CCOc1ccccc1/C=N/NC(=O)c1ccc(Cn2cc([N+](=O)[O-])cn2)o1 | -15.9 |
| Cc1ccccc1OCC(=O)O/N=C(\N)Cc1ccc(Cl)cc1 | 17.6 |
| Cc1cccc(OCCCC(=O)NC2CCCCC2)c1 | 3.79 |
| O=C(Nc1nc2ccc([N+](=O)[O-])cc2s1)c1ccncc1 | -0.912 |
| COC(=O)c1ccc(C(=O)OC)c(NC(=O)CN(c2ccc3c(c2)OCO3)S(C)(=O)=O)c1 | -21.1 |
| COC(=O)c1ccccc1S(=O)(=O)N(Cc1cc2cc3c(cc2[nH]c1=O)OCO3)C1CCCCC1 | 11.6 |
| CN1CCc2nc(SCc3ccccc3Br)c(C#N)cc2C1 | -28.2 |
| CS(=O)(=O)N1CCN(c2ccccc2NC(=O)c2cc3ccccc3o2)CC1 | 7.78 |
| O=C(Nc1ccc2c(c1)OCO2)C1CCCN(c2nc3ccccc3s2)C1 (stereo not drawn) | -13.6 |
| Cc1ccc(NC(=O)c2noc3c2CCc2ccccc2-3)cc1 | 16.9 |
| CCOc1ccccc1CN1C(=O)c2ccccc2C1C(=O)NC(C)CC (stereo not drawn) | 4.39 |
| Cc1cc(C)c(NS(=O)(=O)c2ccc(NC(=O)CCC(=O)O)cc2)c(C)c1 | 18.6 |
| N#Cc1nc(COc2cccc(Cl)c2)oc1N1CCN(c2ccccc2)CC1 | -4.18 |
| O=C(CCNc1cccc(Cl)c1)c1cccs1 | 6.19 |
| CC(=O)c1ccc(S(=O)(=O)NCCC(=O)OCC(=O)N2CCCC2=O)cc1 | -7.6 |
